About 14,000 (4.5%) of roughly 310,000 compounds showed an effect of 50% or more. Effects have a minus sign here. Some of the results follow.
Each compound was assayed against human ether-à-go-go-related gene (hERG) potassium channel (human, UniProt Q12809) (assay: primary screen, population patch clamp on CHO cells stably expressing hERG).
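Note: peak tail current of the secondary pulse compared with the same well before compound.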

Chain of human ether-à-go-go-related gene (hERG) potassium channel (Q12809 whole entry, looked up): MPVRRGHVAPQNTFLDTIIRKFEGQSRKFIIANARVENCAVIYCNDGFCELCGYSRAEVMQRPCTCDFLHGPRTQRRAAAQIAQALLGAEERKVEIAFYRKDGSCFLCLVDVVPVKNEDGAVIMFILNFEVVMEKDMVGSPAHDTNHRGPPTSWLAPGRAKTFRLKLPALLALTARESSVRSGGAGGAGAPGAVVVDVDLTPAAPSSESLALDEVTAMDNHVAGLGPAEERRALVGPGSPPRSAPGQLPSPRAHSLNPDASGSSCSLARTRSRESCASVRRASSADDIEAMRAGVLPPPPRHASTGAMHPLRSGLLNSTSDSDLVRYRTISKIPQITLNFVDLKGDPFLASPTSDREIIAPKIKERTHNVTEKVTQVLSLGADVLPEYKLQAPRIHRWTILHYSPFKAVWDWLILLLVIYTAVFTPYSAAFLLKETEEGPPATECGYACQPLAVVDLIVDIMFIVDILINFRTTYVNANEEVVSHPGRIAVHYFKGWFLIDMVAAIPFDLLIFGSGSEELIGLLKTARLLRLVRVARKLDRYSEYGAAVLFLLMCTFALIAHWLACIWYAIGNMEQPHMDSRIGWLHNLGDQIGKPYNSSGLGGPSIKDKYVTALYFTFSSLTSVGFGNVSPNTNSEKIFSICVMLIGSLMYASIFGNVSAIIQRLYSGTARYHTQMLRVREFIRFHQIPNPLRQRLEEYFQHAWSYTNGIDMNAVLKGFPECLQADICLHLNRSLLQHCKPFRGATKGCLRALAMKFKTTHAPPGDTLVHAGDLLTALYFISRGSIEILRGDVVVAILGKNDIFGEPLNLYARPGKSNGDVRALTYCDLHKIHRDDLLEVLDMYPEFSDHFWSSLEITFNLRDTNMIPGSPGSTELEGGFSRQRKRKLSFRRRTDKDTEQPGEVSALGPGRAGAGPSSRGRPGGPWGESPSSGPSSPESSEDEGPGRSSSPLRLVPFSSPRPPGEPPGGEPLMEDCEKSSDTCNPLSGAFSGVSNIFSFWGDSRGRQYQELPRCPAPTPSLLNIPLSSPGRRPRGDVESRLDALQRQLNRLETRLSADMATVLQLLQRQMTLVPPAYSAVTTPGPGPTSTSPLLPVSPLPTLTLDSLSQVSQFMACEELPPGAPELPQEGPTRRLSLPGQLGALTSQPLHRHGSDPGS

Row | SMILES | hERG current change (%, negative = inhibition) at 10uM [%]
1 | CCC(=O)Nc1ccc(C(=O)NNC(=O)c2ccc(C)cc2)cc1 | 14
2 | CCC(C)C(NC(=O)C1CCC(C)CC1)C(=O)Nc1ccc(OC)cc1 (stereo not shown) | -1.46
3 | Cc1c(Cl)c([N+](=O)[O-])nn1CCCC(=O)Nc1cc(Oc2ccccc2)cc([N+](=O)[O-])c1 | -19.2
4 | O=C(COC(=O)c1cccc(-n2cnnn2)c1)Nc1c(Cl)cccc1C(F)(F)F | 11
5 | Nn1c(SCC(=O)Nc2ccc3c(c2)OCCO3)nncc1=O | 20.3
6 | COCCCNC(=O)C(=O)Nc1cc2c3c(c1)CCN3C(=O)CC2 | 10.9
7 | O=[N+]([O-])c1cc(Br)c(OCc2nnc(-c3ccccc3)o2)c(Br)c1 | 2.72
8 | CCOC(=O)c1c(S(=O)(=O)NCC(=O)NCc2cccc(C)c2)c(C)n(C)c1C | -41.3
9 | Cc1cccc(N2CCN(C(=O)CCNS(=O)(=O)c3cccs3)CC2C)c1 (stereo not shown) | 7.88
10 | O=C(O)c1cccc(NC(=S)N/N=C/c2cccc(O)c2)c1 | 10.5
11 | COc1ccc(CC(=O)OCC(=O)Nc2ccc(Cl)c(S(=O)(=O)N(C)C)c2)cc1 | 12.9
12 | CSc1nc(N)n(-c2cc(C(F)(F)F)ccn2)n1 | 1.28
13 | Cc1cc(C)nc(N/N=C/c2ccccc2OCc2ccc([N+](=O)[O-])cc2)n1 | -11.9
14 | O=C(Nc1nnc(C2=COCCO2)o1)c1ccc(S(=O)(=O)N2CCCC2)cc1 | 17.2
15 | Cc1ccc(N(C)C(=O)CCS(=O)(=O)c2ccc3c(c2)oc(=O)n3C)cc1 | -6.76
16 | Cc1cc2c(cc1S(=O)(=O)NCc1ccccc1Cl)OCCN2C | -7.97
17 | Cc1ccc(NC(=O)C(C)Sc2nc(=O)cc(N)n2-c2ccccc2)cc1 (stereo not shown) | 18.5
18 | CCC(C)n1cnc2c(c1=O)c1nc3ccccc3nc1n2Cc1ccc(OC)cc1 (stereo not shown) | -31.2
19 | O=C(c1cccc(C(=O)N2CCN(c3ccccc3F)CC2)n1)N1CCN(c2ccccc2F)CC1 | -28.3
20 | N#Cc1c2ccc([N+](=O)[O-])cc2[n+]([O-])n1-c1ccccc1 | 10.7
21 | O=C(NC1CCCCC1)N1CCN(Cc2ccco2)CC1 | 11.8
22 | O=C1/C(=C/Nc2ccc3c(c2)OCO3)CCc2ccccc21 | 1.21

Row | SMILES | hERG current change (%, negative = inhibition) at 10uM [%]
23 | COc1ccc(CN2CCN(CC3CC3)CC2CCO)cc1C (stereo not shown) | -0.194
24 | Cc1cccc(Nc2c([N+](=O)[O-])cc(C(=O)N3CC(=O)Nc4ccccc43)cc2[N+](=O)[O-])c1 | -7.96
25 | Cc1ccc(S(=O)(=O)c2c(C)cc(-c3ccccc3)[nH]c2=O)cc1 | 8.91
26 | COc1ccc(CC(=O)NCCS(=O)(=O)N2CCN(c3ccc(F)cc3)CC2)cc1OC | -28.1
27 | C#CC(C)(C)NC(=S)NC1CC2C=CC1C2 (stereo not shown) | 6.32
28 | O=C(CSc1nnc(NC(=O)c2ccco2)s1)Nc1ccccc1 | 22.7
29 | O=c1c(Cl)c(NCC2CCCO2)cnn1C12CC3CC(CC(C3)C1)C2 (stereo not shown) | -29.3
30 | CN(C)CCCNC(=O)c1cc(C(=O)c2ccccc2F)c[nH]1 | 1.23
31 | O=C(O)c1cc(-c2ccccc2)nn1CC1CC(c2cccc([N+](=O)[O-])c2)=NO1 (stereo not shown) | 19.1
32 | COc1cc(SC)ccc1C(=O)OCC(=O)NC1CCCCC1 | 9.22
33 | Cc1ccc(CN(C)C(=O)CCNS(=O)(=O)c2ccccc2)o1 | 0.979
34 | CCCc1nnc(NC(=O)CSc2nc3ccccc3[nH]2)s1 | 0.62
35 | COc1ccc2[nH]c(C(=O)NCCN3CCCCC3)cc2c1 | -0.647
36 | Cc1ccc(C(=O)NNc2nc3ccccc3nc2C(F)(F)F)cc1 | 6.48
37 | Brc1ccc(-c2nnc3ccc(N4CCN(c5ccccc5)CC4)nn23)cc1 | 5.09
38 | COc1ccccc1NS(=O)(=O)c1cc(Cl)ccc1OC | -6.58
39 | O=C(COC(=O)c1ccc(O)cc1)Nc1ccc(Cl)cc1 | -1.41
40 | Cc1ccccc1CNS(=O)(=O)c1ccc2c(c1)C(C)(C)C(=O)N2C | -18.6
41 | COc1ccc(Nc2n[nH]c(N)c2C(N)=O)cc1 | 15
42 | COc1cc2c(cc1O)C(Cc1ccc(O)cc1)[N+](C)([O-])CC2 (stereo not shown) | 18.8
43 | CN(C)/N=C/C=C1\CCC/C(=C/c2cccs2)C1=O | 4.73
